Assay results reported in PubChem BioAssay.
This list was built around the results that the source calls inconclusive (neither active nor inactive); the mix of calls is not that of the screen. The source made the active and inactive calls.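 The calls were made as follows: active = thallium flux slope beyond 3 SD from same-plate DMSO control mean in most replicates, usually higher, sometimes lower; inconclusive = repeat tests gave conflicting results; inactive = no significant difference from controls in most replicates.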

molecular target: Solute carrier family 12 member 5 (Homo sapiens) (UniProt Q9H2X9); test: modulation of KCC2 thallium flux in HEK cells – cell-based, ouabain, retest, confirmation (AID 1717); settings: HEK293-KCC2, thallium flux FluoZin2 fluorescence, at 10 µM, bidirectional: low = inhibitor, high = activator;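 also: slope of initial-normalized fluorescence between seconds 10 and 20 after thallium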
UniProt Q9H2X9, sequence (Q9H2X9 whole entry, looked up): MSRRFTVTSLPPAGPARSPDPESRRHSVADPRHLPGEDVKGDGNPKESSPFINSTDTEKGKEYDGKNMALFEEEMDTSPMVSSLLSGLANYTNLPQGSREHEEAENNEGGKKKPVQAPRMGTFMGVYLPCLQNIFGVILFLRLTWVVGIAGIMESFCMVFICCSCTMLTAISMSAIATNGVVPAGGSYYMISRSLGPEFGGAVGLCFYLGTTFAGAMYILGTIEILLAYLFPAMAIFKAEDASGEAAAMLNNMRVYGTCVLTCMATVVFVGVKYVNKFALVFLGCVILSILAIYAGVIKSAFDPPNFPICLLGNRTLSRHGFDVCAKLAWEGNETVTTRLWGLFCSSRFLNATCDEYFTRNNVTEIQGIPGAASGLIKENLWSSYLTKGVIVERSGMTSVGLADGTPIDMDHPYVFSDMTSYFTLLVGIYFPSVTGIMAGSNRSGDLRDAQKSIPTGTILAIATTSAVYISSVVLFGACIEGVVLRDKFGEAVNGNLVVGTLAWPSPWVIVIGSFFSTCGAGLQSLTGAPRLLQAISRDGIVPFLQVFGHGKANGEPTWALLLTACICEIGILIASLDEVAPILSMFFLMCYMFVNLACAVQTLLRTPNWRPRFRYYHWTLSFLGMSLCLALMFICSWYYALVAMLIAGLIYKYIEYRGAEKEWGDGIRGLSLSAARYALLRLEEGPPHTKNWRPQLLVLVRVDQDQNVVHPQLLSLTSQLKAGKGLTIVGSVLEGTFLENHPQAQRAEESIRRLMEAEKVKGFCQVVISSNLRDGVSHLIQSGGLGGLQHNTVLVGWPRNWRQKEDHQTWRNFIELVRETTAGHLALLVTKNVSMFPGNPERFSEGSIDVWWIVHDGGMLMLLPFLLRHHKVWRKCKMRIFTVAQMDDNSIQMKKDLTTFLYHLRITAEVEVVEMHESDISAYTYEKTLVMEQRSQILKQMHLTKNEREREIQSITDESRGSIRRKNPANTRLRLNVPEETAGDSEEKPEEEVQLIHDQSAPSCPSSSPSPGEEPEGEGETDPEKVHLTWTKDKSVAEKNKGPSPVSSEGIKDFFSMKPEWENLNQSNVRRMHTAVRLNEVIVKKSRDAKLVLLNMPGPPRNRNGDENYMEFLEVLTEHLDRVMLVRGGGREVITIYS

| SMILES | raw Tl+ flux slope (below DMSO = inhibition, above = activation) |
| --- | --- |
| O=C(COc1cccc(Br)c1)N/N=C/C(=O)c1ccccc1 | inconclusive: 0.024 |
| O=C(Nc1ccc(S(=O)(=O)NCc2ccccc2)cc1)c1ccccc1[N+](=O)[O-] | inconclusive: 0.016 |
| O=[N+]([O-])c1ccccc1/C=C/C=N/n1c(-c2ccc(Cl)cc2)n[nH]c1=S | inconclusive: 0.0229 |
| Cc1onc(-c2c(Cl)cccc2Cl)c1C(=O)NC(=S)N1CCOCC1 | inconclusive: 0.0254 |
| CC(C)NC(=S)N=Nc1c(O)[nH]c2ccc(C(C)C)cc12 | inconclusive: 0.0224 |
| COCCNc1nc2nonc2nc1N(C)Cc1cccc2cnccc12 | inconclusive: 0.0169 |
| S=c1[nH]nc(COc2cccc(Cl)c2)n1Cc1ccccc1 | inconclusive: 0.0299 |
| N=C1SC(c2ccccc2)C(=O)N1c1ncc(Cc2ccccc2Cl)s1 (centres undefined) | inconclusive: 0.0233 |
| Cc1cc(/N=C/C=C2\N(C)c3ccccc3C2(C)C)n(CCC#N)n1 | inconclusive: 0.0188 |
| S=C1CSc2ccccc2N1 | inconclusive: 0.0239 |
| CC(C)(C)C1CCc2sc(C(=O)NNC(=O)CCl)cc2C1 (centres undefined) | inconclusive: 0.0237 |
| COc1cc(NC(=S)NC(=O)c2ccco2)ccc1NC(=O)C(C)C | inconclusive: 0.0215 |
| O=C(O)CC/C(=C\c1ccc(N2CCOCC2)c([N+](=O)[O-])c1)c1nc2ccccc2s1 | inconclusive: 0.015 |
| O=C(NCCSCc1ccccc1)c1cc(S(=O)(=O)N2CCOCC2)ccc1F | inconclusive: 0.0169 |
| Cc1cccc(OCC(=O)N/N=C/CC(C)c2ccccc2)c1C (centres undefined) | inconclusive: 0.0172 |
| CCn1c(SCC(=O)c2ccc3ccccc3c2)nnc1-c1cccs1 | active: 0.0159 |
| CN(C(=S)NC(=O)/C=C/c1ccc(F)cc1)C1CCCCC1 | inconclusive: 0.0334 |
| CC(C)(C)C1CCC(=NNC(=S)Nc2cccnc2)CC1 (centres undefined) | inconclusive: 0.0243 |
| CC(=O)NNC(=O)c1sc(=S)n2c1[nH]c(=O)c1sccc12 | inconclusive: 0.0222 |
| O=C(NNC(=O)c1ccc(Cl)cc1Cl)c1csc(-c2cccnc2)n1 | inconclusive: 0.0251 |

| SMILES | raw Tl+ flux slope (below DMSO = inhibition, above = activation) |
| --- | --- |
| CS(=O)(=O)c1sc(C(=O)NC(=S)Nc2ccc(OC(F)(F)F)cc2)c2c1C=CCC2 | active: 0.0498 |
| O=C(/C=N/NC(=O)c1ccccc1Br)c1ccccc1 | inconclusive: 0.025 |
| COc1ccc(C(=O)N2CCCC(c3ccccc3)C2)cc1 (centres undefined) | inconclusive: 0.0148 |
| O=C(COc1ccc2ccccc2c1)N/N=C/c1ccccn1 | inconclusive: 0.0157 |
| CN1c2ccccc2C(O)=C(C(=S)Nc2ccc(Cl)cc2)S1(=O)=O | inconclusive: 0.0265 |
| COc1cc(OC)cc(C2=NC3(CCC(C)CC3)NC2=S)c1 (centres undefined) | inconclusive: 0.0264 |
| COc1ccc(/C=N/NC(=S)Nc2ccccc2)cc1 | inconclusive: 0.029 |
| O=C(CCn1c(=O)[nH]c2ccsc2c1=O)N(CCc1ccccc1)Cc1ccccc1 | inconclusive: 0.0241 |
| O=C(N/N=C/C(Br)=C/c1ccccc1)c1n[nH]c2c1CCC2 | inconclusive: 0.0214 |
| N#Cc1c(NC(=S)NC(=O)Cc2cccs2)sc2c1CCCCC2 | inconclusive: 0.0261 |
| CCc1[nH]c(=S)c(C#N)c2c1CCCC2 | inconclusive: 0.0251 |
| Cc1ccc(Cn2nnc3c(=O)n(CC(=O)N4CCN(c5ccccc5)CC4)cnc32)cc1 | inconclusive: 0.018 |
| COc1ccc(C(=O)NNC(=S)NC(=O)c2ccc(Br)o2)cc1OC | inconclusive: 0.0273 |
| CCCc1cc(C(=O)Nc2sc3c(c2C#N)CCC3)no1 | inconclusive: 0.028 |
| O=C(N/N=C/c1ccccn1)c1cc(-c2ccccc2)nc2ccccc12 | inconclusive: 0.0274 |
| CN1C(=O)/C(=C/c2ccccc2OCc2ccccc2)NC1=S | inconclusive: 0.0262 |
| C=CCn1c(-c2cc3cccc(OC)c3o2)n[nH]c1=S | inconclusive: 0.0231 |
| COc1ccc(/C=C/C(=O)NC(=S)N2CCN(c3ccccn3)CC2)cc1 | inconclusive: 0.0254 |
| CC(C)CNC(=S)NC(=O)c1ccc(Cl)cc1 | active: 0.0663 |
